The supplement of paper PMC10369915
Some of the results follow. Cut-off read from the data, not from the text of the source: active = 3.2 or more and inactive = the rest. The signal is at background level for most entries.

B1: CYBB_Y324_I325F (peptide)
chain: MEVGQYFFVKC
B2: CYBA_Y88 (peptide)
chain: FTRNYYVRAVL
B3: CYBA_Y88_R90Q_YF (peptide)
chain: FTRNFYVQAVL
B4: CYP24A1_Y407 (peptide)
chain: TVLGEYALPKG
B5: CYBA_Y88_R90W (peptide)
chain: FTRNYYVWAVL
B6: CUX2_Y1470_V1472L (peptide)
chain: LNNIIYRLERA
B7: CTRB2_Y246 (peptide)
chain: TTPAVYARVAK
B8: CTSC_Y352 (peptide)
chain: YVGGFYGGCNE
B9: CYB5R3_Y130_S128P (peptide)
chain: GKMPQYLESMQ
B10: CTSC_Y345_YF (peptide)
chain: FFSSEYHFVGG
B11: CYP21A2_Y259 (peptide)
chain: RDMMDYMLQGV
B12: CTNS_Y143 (peptide)
chain: WSISFYPQVIM
B13: CYP11B1_Y81 (peptide)
chain: GPIFRYDLGGA
B14: CYBA_Y87_R90W (peptide)
chain: PFTRNYYVWAV
B15: CTSK_Y121_R122P_YF (peptide)
chain: PDSVDYPKKGF
B16: CTSC_Y345_Y347C_YF (peptide)
chain: FFSSEYHCVGG
B17: CYBA_Y88_R90W_YF (peptide)
chain: FTRNFYVWAVL
B18: CTPS1_Y567_S571I (peptide)
chain: SPRDTYSDRIG
B19: CYBB_Y324 (peptide)
chain: MEVGQYIFVKC

What follows are binders tested against SHP2 C-SH2 domain E139D (assay: enrichment score (SH2-bound / input frequency) (ratio); bacterial display of known human phosphotyrosine sites (pTyr-Var adds point mutants) read by sequencing; higher = stronger binding; tyrosines were phosphorylated by kinases first). Conditions: peptide library: pTyr-Var.
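Note: displayed peptides selected on beads carrying the immobilized SH2 domain, with library peptides lacking any tyrosine serving as negative controls.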

Enrichment score, inactive:
B1 0.659, B2 1.12, B3 1.28, B4 0.922, B5 2.26, B6 1.48, B7 0.522, B8 0.973, B9 0.882, B10 1.79, B11 0.959, B12 0.809, B13 1.18, B14 2.03, B15 0.318, B16 1.12, B17 0.495, B18 0.483, B19 1.3

What follows are binders tested against SHP2 C-SH2 domain wild-type in the same assay as above. Conditions: peptide library: pTyr-Var.

Enrichment score, inactive:
B1 1.14, B2 1.42, B3 1.56, B4 0.972, B5 2.25, B6 1.31, B7 0.914, B8 0.702, B9 0.686, B10 1.56, B11 0.861, B12 0.929, B13 0.981, B14 2.03, B15 0.442, B16 1.45, B17 0.708, B18 0.472, B19 1.73

What follows are binders tested against SHP2 N-SH2 domain L43F in the same assay as above. Conditions: peptide library: pTyr-Var.

Enrichment score, inactive:
B1 0.847, B2 1.17, B3 1.83, B4 0.761, B5 2.17, B6 2.14, B7 0.691, B8 0.773, B9 0.878, B10 2.07, B11 0.853, B12 0.741, B13 1.02, B14 1.85, B15 0.591, B16 1.08, B17 0.682, B18 0.522, B19 1.29

These binders were tested against SHP2 N-SH2 domain T42A in the same assay as above. Conditions: peptide library: pTyr-Var.

Enrichment score, inactive:
B1 0.741, B2 1.12, B3 1.1, B4 0.651, B5 1.92, B6 1.21, B7 0.692, B8 0.843, B9 0.795, B10 2.07, B11 0.933, B12 0.737, B13 0.856, B14 1.84, B15 0.411, B16 0.854, B17 0.589, B18 0.317, B19 1.15

These binders were tested against SHP2 N-SH2 domain T52S in the same assay as above. Conditions: peptide library: pTyr-Var.

Enrichment score, inactive:
B1 0.779, B2 0.912, B3 1.21, B4 0.681, B5 1.57, B6 1.78, B7 0.572, B8 0.791, B9 0.959, B10 1.85, B11 0.831, B12 0.731, B13 1.08, B14 1.93, B15 0.536, B16 0.951, B17 0.689, B18 0.616, B19 1.11

The binders below were run against SHP2 N-SH2 domain wild-type in the same assay as above. Conditions: peptide library: pTyr-Var.

Enrichment score, inactive:
B1 1.07, B2 1.23, B3 1.59, B4 0.85, B5 1.68, B6 1.11, B7 0.518, B8 0.946, B9 0.965, B10 1.38, B11 0.837, B12 1.03, B13 1.15, B14 1.49, B15 0.68, B16 1.03, B17 0.678, B18 0.747, B19 1.32
